# According to PubChem BioAssay AID624417 (National Center for Advancing Translational Sciences (NCATS), 2012):
# Hit rate of the full screen: of about 410,000 compounds, about 6,400 (1.6%) were called active. Inconclusive results, whose numbers are uncertain, are shown with a selection of clear calls. Calls follow the shape of the dose curve; as a rule, active = well fitted inhibition curve with a large enough effect; inconclusive = small, poorly fitted or top-dose-only effect; inactive = no such curve, though single readings can be large or run the other way. No potency is given beside an inconclusive call; the fits are too rough.
# Target: Glucagon-like peptide 1 receptor (Homo sapiens) (UniProt P43220)
# UniProt P43220, sequence (P43220 whole entry, looked up): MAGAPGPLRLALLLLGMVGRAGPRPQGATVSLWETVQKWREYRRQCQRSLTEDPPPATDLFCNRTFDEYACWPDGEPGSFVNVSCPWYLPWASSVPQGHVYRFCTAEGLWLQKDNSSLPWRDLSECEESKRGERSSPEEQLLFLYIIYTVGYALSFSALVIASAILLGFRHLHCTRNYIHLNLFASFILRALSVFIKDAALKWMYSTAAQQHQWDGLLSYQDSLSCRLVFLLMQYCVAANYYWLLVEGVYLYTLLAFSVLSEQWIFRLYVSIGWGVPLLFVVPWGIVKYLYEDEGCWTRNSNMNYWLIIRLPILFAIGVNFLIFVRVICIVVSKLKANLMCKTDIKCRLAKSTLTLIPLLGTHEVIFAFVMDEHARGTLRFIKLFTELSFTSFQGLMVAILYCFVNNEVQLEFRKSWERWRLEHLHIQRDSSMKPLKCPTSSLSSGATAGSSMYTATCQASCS
# Test: qHTS of GLP-1 Receptor Inverse Agonists (Inhibition Mode); also: nearly all actives have a fitted effect of over 55% in size
# Settings: HEK293 GLP-1R CRE-luciferase, luminescence, 24 h, GLP-1R form is constitutively active; series mostly up to 38.3 µM
# Method in brief: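 Inverse agonists were sought by their lowering of basal cAMP reporter luciferase output in HEK293 cells stably carrying constitutively active human GLP-1R, after 24 h compound treatment.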
# Potency is read from the fitted curve at half-maximal effect; tags tell the direction and shape of the fitted curve.
row,Structure (SMILES),Potency
1,O=C(CN1C(=O)COc2ccccc21)NCCc1ccc(Cl)cc1,inactive
2,CN1OC[C@@H]2CN[C@H](c3ccc(-c4ccccc4)cc3)C[C@@H]21,"inconclusive [inhibitor, single point]"
3,O=C(CN1CCC(NC(=O)Nc2ccccc2)CC1)Nc1ccc([N+](=O)[O-])cc1,"inconclusive [inhibitor, partial curve, poor fit]"
4,Cc1cc(C(=O)N2CCN(C/C=C/c3ccccc3)CC2)cs1,"inconclusive [inhibitor, partial curve, poor fit]"
5,CCCc1nc2sc3ccccc3c(=O)c2c(=O)n1Cc1ccco1,"inconclusive [inhibitor, full curve, poor fit]"
6,CC(C)(C)c1ccc(C(=O)NCC(=O)N2CCCC2)cc1,inactive
7,COc1ccc(CCNC(=O)c2csc3c2CCCC3)cc1OC,"inconclusive [inhibitor, single point]"
8,CNc1ccccc1C(C)(C)c1cc(-c2cc(C)cc(C)c2)no1,"inconclusive [inhibitor, partial curve, poor fit]"
9,C/C(=C\c1ccccc1)C(=O)N1CCN(Cc2ccc3c(c2)OCO3)CC1,"inconclusive [inhibitor, single point]"
10,Cn1c(=O)oc2cc(S(=O)(=O)N3CCCC(C(=O)NC4CCCc5ccccc54)C3)ccc21 (centres undefined),"inconclusive [inhibitor, partial curve, poor fit]"
11,S=c1[nH]nc(COc2ccccc2)n1C1CCCCC1,"inconclusive [inhibitor, single point]"
12,O=C(NNCc1ccccc1)c1ccccn1,"inconclusive [inhibitor, single point]"
13,Cc1cc(C(=O)NCc2cccs2)c(C)o1,inactive
14,CC1CCc2c(sc3ncnc(NCCCOC(C)C)c23)C1 (centres undefined),"inconclusive [inhibitor, single point]"
15,O=C(CN1CCN(c2ccccc2O)CC1)Nc1ccc(S(=O)(=O)N2CCCCCC2)cc1,"inconclusive [inhibitor, partial curve]"
16,O=C(COc1ccc2c(c1)OCO2)NC12CC3CC(CC(C3)C1)C2,"inconclusive [inhibitor, partial curve, poor fit]"
17,N#C/C(=C\c1ccc(-c2ccc(Br)cc2)o1)C(=O)NCCc1c[nH]c2ccccc12,"inconclusive [inhibitor, single point]"
18,O=[N+]([O-])c1cccnc1N1CCC(c2cc(-c3ccc(Cl)cc3)n[nH]2)CC1,"inconclusive [inhibitor, single point]"
19,OCCN1CCN(CCOc2cccc(Cl)c2)CC1,"inconclusive [inhibitor, partial curve, poor fit]"
20,COc1ccc2[nH]c(C(=O)Nc3ccc(F)cc3Br)cc2c1,inactive
21,Cc1cccc(N=C2NC(=O)/C(=C3/C(=O)N(C)c4ccccc43)S2)c1C,"inconclusive [inhibitor, partial curve, poor fit]"
22,NC(N)=Nc1nc(CCN2C(=O)c3ccccc3C2=O)cs1,inactive

row,Structure (SMILES),Potency
1,Cc1ccc(C)c(NC(=S)NNC(=O)c2csc(C)c2)c1,inactive
2,CCn1nc(C(=O)Nc2nc(-c3ccccn3)cs2)c2ccccc2c1=O,"inconclusive [inhibitor, single point]"
3,Cc1cc(C(C)(C)C)oc1C(=O)OCC(=O)NC1CCCCC1,"inconclusive [inhibitor, partial curve, poor fit]"
4,COC(=O)C1=C(C)N(c2ccc(Cl)c(Cl)c2)C(=O)C1,active: 12.6 µM
5,CC1(C)CC(=O)C2=C(C1)NC(=O)CC2c1ccc(F)cc1 (centres undefined),"inconclusive [inhibitor, partial curve, poor fit]"
6,COc1ccc(C(=O)N(CCc2ccccc2)Cc2ccccc2)cc1S(=O)(=O)N1CCOCC1,"inconclusive [inhibitor, single point]"
7,Clc1ccc2nc(N3CCCCC3)sc2c1,"inconclusive [inhibitor, single point]"
8,CCc1noc(C)c1C(=O)N1CCN(c2ccc([N+](=O)[O-])cc2)CC1,inactive
9,O=S(=O)(NC1Cc2ccccc2C1)c1ccccc1,"inconclusive [inhibitor, partial curve, poor fit]"
10,CCOc1ccc(-c2cc(C(=O)Oc3ccc(C#N)cc3)no2)cc1,inactive
11,N/C(=N\OC(=O)Cc1ccc([N+](=O)[O-])cc1)c1cccc(Br)c1,"inconclusive [inhibitor, single point]"
12,Cc1ccccc1Nc1c(-c2cc(Br)ccc2F)nc2ccccn12,inactive
13,CCN(CC)C(=S)SC1CCCCN(C(=O)c2ccc(F)cc2)C1=O (centres undefined),"inconclusive [inhibitor, single point]"
14,CCN(CC)S(=O)(=O)c1ccc(C(=O)NNc2nc(-c3ccccc3)c3cc(Br)ccc3n2)cc1,"inconclusive [inhibitor, partial curve, poor fit]"
15,Cc1ccc(NC(=O)Cc2cccs2)cc1Cl,"inconclusive [inhibitor, single point]"
16,COc1ccccc1C(=O)Nc1ccc2c(C)cc(=O)oc2c1,inactive
17,COc1ccc(NC(=O)COC(=O)Cn2nnc3ccccc32)cc1,inactive
18,Cc1c(C#N)c2ccccc2n1CC(=O)N1CCCc2ccccc21,"inconclusive [inhibitor, partial curve, poor fit]"
19,CCc1ccc(C(=O)C(C)OC(=O)C2COc3ccccc3O2)cc1 (centres undefined),inactive
20,CCn1c2ccccc2c2cc(NC(=O)COc3ccccc3OC)ccc21,"inconclusive [inhibitor, single point]"
21,CCOC(=O)C(CC)Sc1ncnc2c1nnn2-c1ccc(F)cc1 (centres undefined),"inconclusive [inhibitor, single point]"
22,O=[N+]([O-])c1ccc(COc2ccc(CN3CCCC3)cc2)cc1,"inconclusive [inhibitor, partial curve, poor fit]"
